# According to the supplement of paper PMC7826260:
# This is one part of the list. Cleavage of a single-stranded DNA pool by Rep nickase domains was read by sequencing (1 h at 37 °C, 3 µM enzyme); the outer parts of the 90-letter strands are left off. A value is the log2 ratio of uncut reads to the pool without enzyme; the lower, the more was cut; hits are not called. Reads are scaled to the total; where an enzyme cuts many sequences, the uncut ones exceed 0.
# What was measured:
# Experiment in all cases: uncleaved DNA left, log2 of reads against the no-enzyme library (log2 ratio); higher = less cleavage (more negative = more Rep cleavage of the k-mer); sequences stand for … in CTCGTCCG…ACCGGAGA
# [1] = test system: T1, Rep nickase domain of Muscovy duck circovirus
# T1 sequence (residues 1-111, tag not shown): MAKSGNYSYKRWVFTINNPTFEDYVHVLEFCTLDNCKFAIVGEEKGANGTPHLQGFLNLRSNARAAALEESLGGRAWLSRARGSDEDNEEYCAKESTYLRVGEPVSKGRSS
# Experimental: (§1)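 A pool of 90-nt single-stranded DNAs with seven random bases just before the constant AC of the nick site (name = the seven bases) was cut by 3 µM recombinant His6-SUMO-tagged Rep nickase domain (300 nM DNA, 50 mM HEPES pH 8.0, 50 mM NaCl, 1 mM MnCl2, 1 h, 37 °C, three replicates). Uncut DNA was amplified and sequenced.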
# [2] = test system: T2, Rep nickase domain of banana bunchy top virus
# T2 sequence (residues 1-94, tag not shown): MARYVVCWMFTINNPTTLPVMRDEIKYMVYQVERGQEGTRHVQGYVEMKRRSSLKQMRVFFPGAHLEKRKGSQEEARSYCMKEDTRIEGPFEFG
# Experimental: as §1
# [3] = test system: T3, Rep nickase domain of cabbage leaf curl virus
# T3 sequence (residues 1-116, tag not shown): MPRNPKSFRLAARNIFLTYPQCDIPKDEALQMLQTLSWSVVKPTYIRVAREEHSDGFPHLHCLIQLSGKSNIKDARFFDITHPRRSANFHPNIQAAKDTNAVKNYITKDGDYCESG
# Experimental: as §1
# [4] = test system: T4, Rep nickase domain of chickpea chlorotic dwarf virus
# T4 sequence (residues 1-124, tag not shown): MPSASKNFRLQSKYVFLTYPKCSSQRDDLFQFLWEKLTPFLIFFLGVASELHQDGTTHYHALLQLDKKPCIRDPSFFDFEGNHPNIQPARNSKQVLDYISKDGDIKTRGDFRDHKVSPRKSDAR
# Experimental: as §1
# [5] = test system: T5, Rep nickase domain of faba bean necrotic yellows virus
# T5 sequence (residues 1-98, tag not shown): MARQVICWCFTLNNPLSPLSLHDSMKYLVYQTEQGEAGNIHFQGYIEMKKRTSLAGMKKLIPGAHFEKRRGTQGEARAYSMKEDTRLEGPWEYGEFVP
# Experimental: as §1
# [6] = test system: T6, Rep nickase domain of maize striate mosaic virus
# T6 sequence (residues 1-117, tag not shown): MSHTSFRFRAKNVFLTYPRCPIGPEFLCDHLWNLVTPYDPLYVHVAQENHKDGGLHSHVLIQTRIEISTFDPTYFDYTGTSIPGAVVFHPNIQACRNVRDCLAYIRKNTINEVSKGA
# Experimental: as §1
# [7] = test system: T7, Rep nickase domain of porcine circovirus 2
# T7 sequence (residues 2-116, tag not shown): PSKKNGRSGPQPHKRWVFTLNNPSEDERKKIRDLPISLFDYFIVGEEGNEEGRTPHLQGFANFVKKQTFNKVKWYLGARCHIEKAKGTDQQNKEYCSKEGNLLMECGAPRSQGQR
# Experimental: as §1
# [8] = test system: T8, Rep nickase domain of tomato golden mosaic virus
# T8 sequence (residues 1-124, tag not shown): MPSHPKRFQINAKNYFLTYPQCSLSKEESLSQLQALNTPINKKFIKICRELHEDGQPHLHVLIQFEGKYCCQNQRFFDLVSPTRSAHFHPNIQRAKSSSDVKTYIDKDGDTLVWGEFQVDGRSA
# Experimental: as §1
# [9] = test system: T9, Rep nickase domain of tomato yellow leaf curl virus
# T9 sequence (residues 1-136, tag not shown): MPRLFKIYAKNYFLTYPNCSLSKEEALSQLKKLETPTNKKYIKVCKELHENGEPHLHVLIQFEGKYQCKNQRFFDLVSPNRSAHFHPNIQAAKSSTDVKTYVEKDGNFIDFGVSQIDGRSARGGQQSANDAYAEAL
# Experimental: as §1
# [10] = test system: T10, Rep nickase domain of wheat dwarf virus
# T10 sequence (residues 1-137, tag not shown): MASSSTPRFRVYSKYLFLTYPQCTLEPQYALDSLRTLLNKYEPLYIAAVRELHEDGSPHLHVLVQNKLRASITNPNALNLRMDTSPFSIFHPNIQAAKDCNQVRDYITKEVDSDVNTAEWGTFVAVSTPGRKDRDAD
# Experimental: as §1
Sequence,uncleaved DNA left (log2) [1],uncleaved DNA left (log2) [2],uncleaved DNA left (log2) [3],uncleaved DNA left (log2) [4],uncleaved DNA left (log2) [5],uncleaved DNA left (log2) [6],uncleaved DNA left (log2) [7],uncleaved DNA left (log2) [8],uncleaved DNA left (log2) [9],uncleaved DNA left (log2) [10]
GACTCCC,-0.313,-0.154,0.128,0.124,-0.0627,0.643,-2.16,-0.0318,0.0526,-0.0187
TGACTTC,-0.052,0.0269,0.309,0.459,0.0365,1.02,0.112,-0.0778,0.00967,0.0192
GCCGGTC,0.111,-0.104,0.394,0.574,-0.0453,0.564,0.165,-0.027,0.0767,-0.11
TTTCTCC,0.135,-0.0836,0.11,0.188,-0.00172,1.17,0.0183,-0.162,-0.00136,-0.0277
CTAAAGG,0.115,0.094,0.284,1.18,-0.0145,0.638,0.104,0.045,-0.0706,0.0652
TTGGGGG,0.000961,-0.106,0.159,0.182,-0.0174,-0.0911,0.107,-0.0433,-0.12,-0.0135
ATAATTA,-0.0356,-0.0248,0.183,-1.4,0.112,-0.781,-0.0751,0.186,0.0978,0.148
CCTGAAG,-0.0298,-0.0182,-0.77,-0.288,0.0792,-0.888,0.108,0.0425,-0.00935,-0.0315
GCAGTCA,-0.0809,0.0584,0.0521,-0.417,-0.0115,-0.119,0.0338,0.0274,0.000182,0.0662
GCTGTCA,0.00766,-0.0497,-0.0626,0.254,-0.101,0.584,-0.184,-0.0618,0.0155,-0.00163
GGCAAAC,-0.0435,0.071,0.509,1.4,0.0148,1.71,0.139,0.0522,0.0553,0.0481
TCCTAGT,-1.56,-0.085,-0.0538,-0.715,-0.148,-0.877,-3.24,-0.069,-0.146,-0.082
TGGAACT,0.125,-0.00622,0.691,0.48,-0.0556,1.89,0.152,0.0104,0.125,0.181
CGGTCTA,0.0862,0.103,0.116,0.00873,-0.102,0.65,-0.0772,-0.0872,0.112,0.119
CCAAATA,0.115,0.0711,-0.0792,-1.56,0.0415,-0.477,0.0139,0.0894,0.0296,0.0445
CGTTCCG,-0.0364,-0.16,-0.93,-0.148,-0.0665,-0.939,0.0268,-0.193,-0.204,-0.178
CGTCTGA,-0.177,-0.037,-0.0705,0.535,-0.197,1.42,0.0633,-0.0993,0.0545,0.0324
CTACCAT,-0.147,-0.0747,-0.322,-2.51,0.00327,-0.627,-0.788,-0.25,-0.0286,-0.0621
ACTCTAA,-0.1,-0.108,-0.297,-0.475,0.0253,-0.897,-0.146,0.0915,-0.176,-0.114
CACACAG,0.0474,-0.00066,-0.683,-0.463,0.0995,-0.942,0.181,0.0387,-0.00936,0.0109
TGTTAGA,-0.0578,-0.103,0.0178,-0.14,0.0196,-0.726,0.0336,-0.00417,-0.006,0.0166
CCTCGGT,-0.0289,-0.043,0.293,0.811,0.047,1.15,0.116,-0.0681,-0.0376,-0.0679
GAGCTTT,0.132,0.0494,0.149,-1.48,0.0371,1.02,-2.67,0.0351,0.063,0.135
AATTTAC,-0.0701,0.00948,-0.209,-2.4,-0.00597,-1.04,-0.161,-0.0995,0.00448,-0.098
ATCTCAT,-0.064,-0.0519,-0.14,-0.479,-0.0363,-0.316,-0.731,-0.163,0.0533,0.0359
GCCTCTC,-0.00973,-0.198,0.0524,0.166,-0.087,0.163,-0.0628,0.0361,-0.108,-0.103
AGATGGG,0.0842,0.108,-0.481,-0.597,0.0286,-0.902,0.24,0.0378,0.0586,-0.159
CGATTTT,-2.83,-0.0998,-0.0125,-1.91,0.0686,-0.271,-3.08,-0.0705,0.133,-0.15
TGACGAA,-0.0244,-0.0737,0.144,0.316,-0.0177,0.352,-0.197,0.0424,0.0241,0.0813
